The RNAGym collection of RNA variant scans (doi:10.1073/pnas.2313332121)
This sample is rich in variants without activity.

B1: TPR 5TU (parent)
chain: GGAUCUUCUCGAUCUAACAAAAAAGACAAAUCUGCCACAAAGCUUGAGAGCAUCUUCGGAUGCAGAGGCGGCAGCCUUCGGUGGCGCGAUAGCGCCAACGUUCUCAACUAUGACACGCAAAACGCGUGCUCCGUUGAAUGGAGUUUAUCAUG

Variants of: B1
Assay: polymerase ribozyme fitness, log enrichment relative to wild type (log ratio); higher = more active; in vitro selection for triplet polymerase activity
How it was run: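 Streptavidin-bead capture of gel-excised extended constructs, followed by RT-PCR, closed a single triplicate in vitro selection round. That round began by annealing PCR-built, transcribed mutant libraries of each subunit of a heterodimeric triplet polymerase ribozyme with a biotinylated primer, the partner subunit and triplets, then incubating them frozen at −7 °C. After Illumina sequencing of inputs and outputs, genotypes needed ≥10 input reads and ≥1 read per output. Fitness is the base-2 logarithm of genotype enrichment over wild-type enrichment, using inverse-variance-weighted replicate averages.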

Variant	polymerase ribozyme fitness (log ratio)
GGAUCUUCUCGAUCUAACAAAAUAGACAAAUCUGCCACAAAGCUUGAGAGCAUCUUGGGAUGCAGAGGCGGCUGCCUUCGGUGGCGCGAUAGCGCCAUCGUUCUCAACUAUGACACGCAAAACGCGUGCUCCGUUGAAUGGAGUUUAUCAUG [A23U C57G A73U A98U]	≤ -4.2
GGAUCUUCUCGAUCUAACAAAAUAGACAAAUCUGCCACAAAGCUUGAGAGCAUCUUCGGAUGCAGAGGCGGCAGGCUUCGGUGGCUCGAUAGCGCCAACGUUCUCAACUAUGACACGCAAAACGCGUGCUCCGUUGAAUGGAGUUUAUCAUG [A23U C75G G86U]	≤ -4.2
GGAUCUUCUCGAUCUAACAAAAUAGACAAAUCUGCCACAAAGCUUGAGAGCAUCUUCGGAUGCAGAGGCGGCAGCCUUCGGUGGCGGGAUGGCGCCAACGUUCUCAACUAUGACACGCAAAACGCGUGCUCCGUUGAAUGGAGUUUAUCAUG [A23U C87G A91G]	≤ -4.2
GGAUCUUCUCGAUCUAACAAAAUAGACAAAUCUGCCACAAAGCUUGAGAGCAUCUUCGGAUGCAGAGGCGGCAGCCUUUGGUGGCGCGAUAGCGCUAAAGUUCUCAACUAUGACUCGCAAAACGCGUGCUCCGUUGAAUGGAGUUUAUCAUG [A23U C79U C96U C99A A115U]	≤ -4.2
GGAUCUUCUCGAUCUAACAAAAUAGACAAAUCUGCCACAAAGCUUGAGAGCAUCUUUGGAUGCAGAGGCGGCAGCCUUCGGUGGCGCGAUAGCGCCAACGUUCUCAACUAUGACACGCAAAACGCGUGCUCCGUUGAAUGGAGUUUAUCAUG [A23U C57U]	-3.64
GGAUCUUCUCGAUCUAACAAAAUAGACAAAUCUGCCACAAAGCUUGAGAGCAUCUUCGGAUGCAGAGGCGGUAGCCUUCGGUAGCGCGAUAGCGCCAACGUUCUCAACAAUGACACGCAAAACGCGUGCUCCGUUGAAUGGAGUUUAUCAGG [A23U C72U G83A U109A U151G]	≤ -4.2
GGAUCUUCUCGAUCUAACAAAAUAGACAAAUCUGCCACAAAGCUUGAGAGCAUCUUCGGAUGCAGAGGCGGCAGCGUUCUGUGGCGCAAUAGCGCUAACGUUCUCAACUAUGACACGCAAAACGCGUGCUCCGUCGAAUGGAGUUUAUCAUG [A23U C76G G80U G88A C96U U135C]	≤ -4.2
GGAUCUUCUCGAUCUAACAAAAUAGACAAAUCUGCCACAAAGCUUGAGAGCAUCUUCGGAUGCAGAGGCGGCAGGCUUCGGUGGCGCGAUAGCGCGAACGUUCUCAGCUAUGACAUGCAAAACGCGUGCUCCGUUGAAUGGAGUUUAUCAUG [A23U C75G C96G A107G C116U]	≤ -4.2
GGAUCUUCUCGAUCUAACAAAAUAGACAAAUCUGCCACAAAGCUUGAGAGCAUCUUCGGAUGCAGAGGCGGCAGUCUUCGGUGUCGCGAUAGCGCCAAAGUUCUCAACUAUGACACGCAAAACGCGUGCUCCGUUGAAUGGAGUUUAUCAUG [A23U C75U G84U C99A]	≤ -4.2
GGAUCUUCUCGAUCUAACAAAAUAGACAAAUCUGCCACAAAGCUUGAGAGCAUCUUCGGAUGCAGAGGCGGCAGCGUUCGGUGGCUCGAUAGCGCCAACGUUCUCAACGAUGACACGCAAAACGCGUGCUCCGUUGAAUGGAGUUUAUCGUG [A23U C76G G86U U109G A150G]	≤ -4.2
GGAUCUUCUCGAUCUAACAAAAUAGACAAAUCUGCCACAAAGCUUGAGAGCAUCUUCGGAUGCAGAGGCGGCAGCCUUCGGUGGCGCGAUAGAGCCAACGUUCUCAACUAUGACACGCAAAACGCGUGCUCCGUUGAAUGGAGUUUAUCAUG [A23U C93A]	≤ -4.2
GGAUCUUCUCGAUCUAACAAAAUAGACAAAUCUGCCACAAAGCUUGAGAGCAUCUUCGGAUGCAGAGGCGGCAGCCUUCGGUGGUGCGAUAGCGCGAACGUUCUUAGCUAUGACACGCAAAACGCGUGCUCCGUUGAAUGGAGUUUAUCAUG [A23U C85U C96G C105U A107G]	≤ -4.2
GGAUCUUCUCGAUCUAACAAAAUAGACAAAUCUGCCACAAAGCUUGAGAGCAUCUUCGGAUGCAGAGGCGGCAGCCUUCGGUGGCGUGAUAGCGCCAACGUUCUCAACUAUGACACGCAAAACGCGUGCUCCGUUGAAUGGAGUUUAUCAUG [A23U C87U]	≤ -4.2
GGAUCUUCUCGAUCUAACAAAAUAGACAAAUCUGCCACAAAGCUUGAGAGCAUCUUCGGAUGCAGAGGCGGCAGCCUUCGGUGGCGCGAUAGAGCCAACGUUCUCAACUAUGACACGCAAAACGCGUGCUCCGUCGAAUGGAGUUUAUCAUG [A23U C93A U135C]	≤ -4.2
GGAUCUUCUCGAUCUAACAAAAUAGACAAAUCUGCCACAAAGCUUGAGAGCAUCUUCGGAUGCAGAGGCGGCAGCCUUCGGUGGCGGGAUAGCGCCAACGUUCUCAACUAUGACACGCAAAACGUGUGCUCCGUUGAAUGGAAUUUAUCAUG [A23U C87G C125U G143A]	≤ -4.2
GGAUCUUCUCGAUCUAACAAAAUAGACAAAUCUGCCACAAAGCUUGAGAGCAUCUUCGGAUGCAGAGGCGGCAGCCUUCGGUGGCGCGAUAGCGCCAAUGUUCUCAACUAUGACACGCAAAACGCGUGCUCCGUUGAAUGGAGUUUAUCAUG [A23U C99U]	-3.84
GGAUCUUCUCGAUCUAACAAAAUAGACAAAUCUGCCACAAAGCUUGAGAGCAUCUUCGGAUGCAGAGGCGGCAGCCUUCGGUGGCGUGAUAGCGCCAACGUUCUCAACUAUGACACGCAAAACGCGUGCUCCGUUGAAUGGAGUGUAUCAUG [A23U C87U U145G]	≤ -4.2
GGAUCUUCUCGAUCUAACAAAAUAGACAAAUCUGCCACAAAGCUUGAGAGCAUCUUCGGAUGCAGAGGCGGCAGCCUUUGCUAGCGCGAUAGUGCCAACGUUCUCAACUAUGACACGCAAAACGCGUGCUCCGUGGAAUGGAGUUUAUCAUG [A23U C79U G81C G83A C93U U135G]	≤ -4.2
GGAUCUUCUCGAUCUAACAAAAUAGACAAAUCUGCCACAAAGCUUGAGAGCAUCUUCGGAUGCAGAGGCGGCAGCCUUCGGUGGGGCGAUAGCGCCAACGUUCUCAACUAUGACACGCAAAACGCGUGCUCCGUUGAAUGGAGUUUAUCAUG [A23U C85G]	≤ -4.2
